ChEMBL document CHEMBL5308541, “MAIP: An Open-Source Tool to Enrich High-Throughput Screening Output and Identify Novel, Druglike Molecules with Antimalarial Activity” (ACS Med Chem Lett, 2023)
About 540 (0.36%) of roughly 150,000 compounds showed an effect of 50% or more. The list shows a part of the results.

Each compound was assayed on Plasmodium falciparum (assay: Primary screen in NF54 nanoGlo assay, in single point, at 2uM, 72h; a lower Z score goes with more inhibition). Conditions: timepoint 72 hour.
Assay type: functional, Erythrocyte
With O=C(c1ccnc(NCCCNc2cccnc2)c1)N1CCCC1 the “% Inhibition” value was 0% and the Z score was 0.07. With COCCN1CCC[C@H](CNc2nnc(-c3ccccc3)s2)C1 the “% Inhibition” value was -1% and the Z score was 0.18. Brc1cccc(N[C@H]2CCCNC2)c1 was tested, and the “% Inhibition” value was -2% and the Z score was 0.36. In the case of c1ccc2c(N3CCN(Cc4ccc(-n5ccnc5)cc4)CC3)ncnc2c1, the “% Inhibition” value is reported as 0% and the Z score is reported as 0.08. With CN(CC1CCN(Cc2ccccc2)CC1)c1cc(N)nc(N2CCOCC2)n1 the “% Inhibition” value was 6% and the Z score was -0.92. In the case of CC(C)(C(=O)NCc1nnc[nH]1)c1ccc(F)cc1, the “% Inhibition” value is reported as 1% and the Z score is reported as -0.21. In the case of COc1ccc2[nH]c(C(=O)NC3CCN(c4cnccn4)CC3O)cc2c1 (stereo not drawn), the “% Inhibition” value is reported as 5% and the Z score is reported as -0.85. In the case of COC1(c2nc(-c3ccccn3)no2)CCN(CC[C@H]2CCCN2C)CC1, the “% Inhibition” value is reported as -9% and the Z score is reported as 1.32. In the case of CC1CC(NCc2ccc(F)c(C(F)(F)F)c2)CCN1C (stereo not drawn), the “% Inhibition” value is reported as -3% and the Z score is reported as 0.5. In the case of c1cc(CNc2ccc3ncsc3c2)cs1, the “% Inhibition” value is reported as -10% and the Z score is reported as 2.15. In the case of Cc1c[nH]c(CN2CCc3nnc(Cc4ccccc4)n3CC2)c(C)c1=O, the “% Inhibition” value is reported as 1% and the Z score is reported as -0.12. In the case of COc1ccccc1[C@@H]1CCCN1c1cc(NCC2CC2)ncn1, the “% Inhibition” value is reported as -2% and the Z score is reported as 0.25. In the case of Oc1cc(CNCC2(Cn3ccnc3)CC2)nc2c(F)cccc12, the “% Inhibition” value is reported as -4% and the Z score is reported as 0.64. c1nc(N2CCC(c3nnc[nH]3)CC2)c2[nH]ccc2n1 was tested, and the “% Inhibition” value was 3% and the Z score was -0.4. With O=C(NC1CCNCC1O)c1cccc(-c2cnn(Cc3ccccc3)c2)c1 (stereo not drawn) the “% Inhibition” value was -9% and the Z score was 1.89. With CCc1ccc(CN(C(=O)Cc2c(C)[nH]c(=O)[nH]c2=O)C2CC2)cc1 the “% Inhibition” value was -5% and the Z score was 0.83. For CCN(CC)Cc1cccc(CNc2nc(N)c3cnn(C)c3n2)c1, the “% Inhibition” value was -8% and the Z score was 1.8. In the case of Cc1nn(-c2ccccc2)cc1CN1CC(CO)C(CN2CCN(C)CC2)C1 (stereo not drawn), the “% Inhibition” value is reported as -8% and the Z score is reported as 1.66. With FC(F)(F)c1c[nH]c([C@H]2CCCN(Cc3ccc4c[nH]nc4c3)C2)n1 the “% Inhibition” value was -4% and the Z score was 0.77. For CCN(CC)c1ccc(CNC(=O)c2cccc(-c3cnc(NC4CCCCC4)nc3)c2)cc1, the “% Inhibition” value was -4% and the Z score was 0.72. Cc1cccc(CNC(=O)c2cccc(-c3cccc(N4CCNCC4)c3)c2)n1 was tested, and the “% Inhibition” value was 5% and the Z score was -1.04. Fc1cc2[nH]cc(CCNc3ccc4nnc(C5CC5)n4n3)c2cc1Cl was tested, and the “% Inhibition” value was -3% and the Z score was 0.45. OC[C@H](Nc1ncnc2sccc12)c1ccc(Cl)cc1 was tested, and the “% Inhibition” value was -22% and the Z score was 3.87. For CC(C)COC(=O)N1CCC(NC2CC(C)(C)NC(C)(C)C2)CC1, the “% Inhibition” value was -13% and the Z score was 2.77. CN(C)C(=O)CN1CCCN(C2CCN(c3ccccc3Cl)CC2)CC1 was tested, and the “% Inhibition” value was 5% and the Z score was -1.14. For O=S1(=O)CC[C@H](Nc2cc(-n3ccnc3)ncn2)CC12CCC2, the “% Inhibition” value was -10% and the Z score was 2.07. With CCN1CCN(CC2CN(C/C=C/c3ccc(OC)cc3)CC2CO)CC1 (stereo not drawn) the “% Inhibition” value was -3% and the Z score was 0.7. For Cc1nc(C2CCNCC2)cc(N2CCN(CC(C)C)[C@@H](CCO)C2)n1, the “% Inhibition” value was 7% and the Z score was -1.1. For Cc1nonc1C(=O)NCC(=O)NCC(F)F, the “% Inhibition” value was -5% and the Z score was 0.85. In the case of CCN1CCCC[C@H]1C(=O)N[C@H]1CC[C@H](Nc2ccccn2)CC1, the “% Inhibition” value is reported as -2% and the Z score is reported as 0.4. With COc1ccc(NC(=O)C2OC(C)CC2C)cc1OCC(F)(F)F (stereo not drawn) the “% Inhibition” value was 9% and the Z score was -1.94. In the case of O=C(O)c1ccc(Nc2nnc(-c3c[nH]c4ccccc34)o2)cc1, the “% Inhibition” value is reported as 4% and the Z score is reported as -0.54. COc1ccnc(N2CCC3C(CCCN3C(=O)CCCC(C)(C)C)C2)n1 (stereo not drawn) was tested, and the “% Inhibition” value was -7% and the Z score was 1.12. With Cc1cc(C)c(C)c(S(=O)(=O)NC2COCC2Cc2ccncc2)c1C (stereo not drawn) the “% Inhibition” value was 0% and the Z score was -0.02. For c1cc(CNc2nc(C3CC3)nc3c2CCNCC3)c2cc[nH]c2c1, the “% Inhibition” value was 9% and the Z score was -1.62. For COc1ncc(-c2ccc([C@H](C)N3CCCCC3)cc2)c(OC)n1, the “% Inhibition” value was -11% and the Z score was 1.82. For COCCN1C[C@@H](CNc2nc(N)nc3c2CCNCC3)CC1=O, the “% Inhibition” value was 3% and the Z score was -0.61. In the case of O=S(=O)(c1cc(Cl)cc(Cl)c1)N1CCN(c2nccc(-c3ccc(-n4ccnc4)cc3)n2)CC1, the “% Inhibition” value is reported as -2% and the Z score is reported as 0.36. For c1ccc(N2CCN(CCCNc3cnccn3)CC2)cc1, the “% Inhibition” value was 4% and the Z score was -0.97. In the case of Cc1cccc(N2CCC(NC3COCC3Cc3ccncc3)CC2)c1C (stereo not drawn), the “% Inhibition” value is reported as 1% and the Z score is reported as -0.27. For Cc1c(N2CCN(CC(F)F)CC2)nc(N(C)C)nc1N1CCN(CC(F)F)CC1, the “% Inhibition” value was -5% and the Z score was 0.81. In the case of CCN1CCC[C@H](CN(C)C2CCN(c3ccc(NC(=O)c4ccc(OC)cc4)cc3)CC2)C1, the “% Inhibition” value is reported as 24% and the Z score is reported as -4.16. In the case of CN1CCC[C@H](c2cc(NCCc3nc(-c4cccnc4)no3)ncn2)C1, the “% Inhibition” value is reported as 1% and the Z score is reported as -0.26. Cc1cc(C(F)(F)F)nc(NCC2(CO)CCC2)n1 was tested, and the “% Inhibition” value was 8% and the Z score was -1.8. c1cc(CNc2ncnc3[nH]ccc23)ccn1 was tested, and the “% Inhibition” value was -1% and the Z score was 0.16. For C[C@@H](CCNc1ccc2cccc(Cl)c2n1)N1CCN(C)CC1, the “% Inhibition” value was -1% and the Z score was 0.13. For CN(C)C1CCC(NC(=O)N2CCC(c3nccc(-c4cccc(F)c4)n3)CC2)C1 (stereo not drawn), the “% Inhibition” value was 5% and the Z score was -0.84. For CN(C[C@H]1CCCN(CCN2CCN(C(=O)OC(C)(C)C)CC2)C1)C(=O)OC(C)(C)C, the “% Inhibition” value was -3% and the Z score was 0.63. In the case of CCN1CCN(CCOc2ccc(CN3CCC[C@@]4(CCNC4)C3)cc2)CC1, the “% Inhibition” value is reported as 1% and the Z score is reported as -0.14. For COc1ccc(-c2cc3c(=O)n(Cc4cccc(C#N)c4)ccn3n2)cc1OC, the “% Inhibition” value was 11% and the Z score was -1.91. In the case of Cc1cc(N[C@@H](C)CCCC(C)(C)O)nc2cc(Cl)ccc12, the “% Inhibition” value is reported as -8% and the Z score is reported as 1.4. In the case of Cc1ccc2c(c1)OCCN2C(=O)CCOCC(F)(F)C(F)F, the “% Inhibition” value is reported as -4% and the Z score is reported as 0.77. In the case of COc1ccc(-c2nc3c([nH]2)CCN(C(=O)c2ccn4nnnc4c2)C3)cc1, the “% Inhibition” value is reported as 2% and the Z score is reported as -0.31. CN1CCN(CC2CCN(c3ccnc4ccccc34)CC2)CC1 was tested, and the “% Inhibition” value was 98% and the Z score was -16.96. In the case of COc1ccccc1-c1cc(CNc2nc3ccc(F)cc3n2C)on1, the “% Inhibition” value is reported as -4% and the Z score is reported as 0.76. With O=C(Nc1cccc2[nH]ccc12)N1CC2(CC2)c2ccccc21 the “% Inhibition” value was -3% and the Z score was 0.56. CCc1c[nH]c2ncnc(N3CCN(Cc4cccc(O)c4)CC3)c12 was tested, and the “% Inhibition” value was -1% and the Z score was 0.18. For O=C(NCCn1ccc2ccc(F)cc21)c1ccc(Nc2ncccn2)cc1, the “% Inhibition” value was -3% and the Z score was 0.45. For Cc1[nH]c2ccc(Cl)cc2c1C(=O)N[C@@H](C)CN1CCN(c2ccccn2)CC1, the “% Inhibition” value was 7% and the Z score was -1.26. In the case of CC(Nc1nc(N)c2ccccc2n1)C(O)Cc1ccccc1 (stereo not drawn), the “% Inhibition” value is reported as 1% and the Z score is reported as -0.29. For O=C(c1c[nH]c2ccccc2c1=O)N1CC2(CCCC2)c2ccccc21, the “% Inhibition” value was -6% and the Z score was 0.91. With Oc1ccccc1CCNC1CCN(CC2CC2)CC1 the “% Inhibition” value was 10% and the Z score was -1.72. In the case of Cc1cc(-c2cccc(C(=O)N[C@@H](C)CN3CCCC3)c2)c(Cl)cc1F, the “% Inhibition” value is reported as 0% and the Z score is reported as 0.01. In the case of OC[C@H]1CN(c2ccncn2)CC12CCN(Cc1c[nH]c3ccccc13)CC2, the “% Inhibition” value is reported as -8% and the Z score is reported as 1.42. For CC(=O)N[C@H]1CCN(C(=O)c2cccc(-c3ccc4c[nH]nc4c3)c2)C1, the “% Inhibition” value was -9% and the Z score was 1.93. With Cn1cccc1-c1cc(C(=O)N2CCc3c([nH]c4ccccc34)[C@H]2c2ccccc2F)[nH]n1 the “% Inhibition” value was -3% and the Z score was 0.48. With Cc1ccc(-c2nc(CN3CCC(C(=O)N4CCC(C)(c5noc(-c6cccnc6)n5)CC4)CC3)c(C)o2)cc1 the “% Inhibition” value was 6% and the Z score was -1.16. CCN1CCC[C@H](c2nccn2-c2ccc3c[nH]nc3c2)C1 was tested, and the “% Inhibition” value was -6% and the Z score was 0.87. With Nc1nc2c(c(NC3CCN(Cc4ccccn4)CC3)n1)CCNC2 the “% Inhibition” value was -1% and the Z score was 0.26. CC1CN(CC2CN(C)CCO2)CCN1Cc1cnc(N)nc1N (stereo not drawn) was tested, and the “% Inhibition” value was 2% and the Z score was -0.33. With O=C(c1c(N2CCOCC2)noc1-c1ccccc1)N1CC2CCC(C1)NC2 (stereo not drawn) the “% Inhibition” value was -11% and the Z score was 1.87. For COc1ccc(CCN2CCC(CN(C)Cc3nc(-c4cccs4)oc3C)CC2)cc1, the “% Inhibition” value was -9% and the Z score was 1.62. Fc1cc(-c2ncnc3[nH]ccc23)ccc1OCc1ccccc1 was tested, and the “% Inhibition” value was 9% and the Z score was -2.03. With CC(C)(CNc1ccc(-n2ccnc2)nc1)c1ccccc1 the “% Inhibition” value was -2% and the Z score was 0.42. CCNc1cc(N[C@H]2CC[C@H](O)CC2)nc(Nc2ccc3c(ccn3Cc3ccccc3)c2)n1 was tested, and the “% Inhibition” value was 0% and the Z score was -0.02. In the case of Cc1ccc2oc(NC3CCN(c4cc(C)nc(C)n4)CC3)nc2c1, the “% Inhibition” value is reported as -6% and the Z score is reported as 1.19. With O=C(c1cnc2c(F)cccc2c1O)N1CCCO[C@@H](CN2CCCC2)C1 the “% Inhibition” value was -13% and the Z score was 1.93. In the case of Cc1c[nH]c(-c2c(-c3ccccc3)ncn2CCCN(CCO)CCO)n1, the “% Inhibition” value is reported as 3% and the Z score is reported as -0.55. For CCc1nc(NCc2nc(-c3ccncc3)no2)c2ccsc2n1, the “% Inhibition” value was -13% and the Z score was 2.25. For Clc1ccc2oc(Nc3ccc4c(c3)Cc3ccccc3-4)nc2c1, the “% Inhibition” value was 3% and the Z score was -0.57. In the case of Cc1c(C(=O)NCC2(N(C)C)CCOCC2)[nH]c2ccc(Cl)cc12, the “% Inhibition” value is reported as -3% and the Z score is reported as 0.55. Cc1nc(CCNC(=O)C2(c3cccnc3)CCCC2)c(C)o1 was tested, and the “% Inhibition” value was -2% and the Z score was 0.41. For Nc1noc(CCNc2nccc(Oc3ccc(F)cc3)n2)n1, the “% Inhibition” value was -10% and the Z score was 1.98. In the case of FC(F)(F)c1cc(NCCc2nnc3ccccn23)c2ccccc2n1, the “% Inhibition” value is reported as -5% and the Z score is reported as 0.8.
